# According to the supplement of paper PMC10126150:
# Values marked as one replicate rest on one cluster of the flow cell; about a third of the high ones do not repeat.
# System: ATP
# Experiment: switch fluorescence ratio, 500 uM ATP over buffer (Cy3 cluster intensity, sum of 5 cycles each) (fold (ratio)); higher = stronger signal-on switching upon ATP binding; sequences stand for … in TCGTCGGCAGCGTCAGATGTGTATAAGAGACAGTTTTTTTTTTTTTTTTTTTTTTTTT…TC
# Details: aptamer strand: ATP DNA aptamer (quencher-CACCTGGGGGAGTATTGCGGAGGAAGG + anchor), 100 nM annealed; ATP concentration: 500 uM; one replicate
# Outline: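 Cy3-labelled switching-strand clusters on a modified Illumina MiSeq flow-cell were annealed to 100 nM quencher-labelled ATP aptamer, imaged in selection buffer, then imaged after 15 min with 500 uM ATP at 22 °C. Five buffer/ATP cycles ran, with NaOH stripping and re-annealing between them. The fluorescence ratio is summed target-cycle over summed buffer-cycle Cy3 intensity per cluster, averaged per switch-domain sequence. Clusters outside 100-1000 RFU were excluded.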
# 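Note: ATP exposure 15 min at 22 °C before imaging.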
row,Sequence,switch fluorescence ratio
1,TTGACTTAGT,1.02
2,TTGAGAGGAA,1.05
3,TTGAGCAGAT,1.1
4,TTGAGCCCTG,1.05
5,TTGAGCGGA,0.978
6,TTGAGGCTT,1.02
7,TTGAGGGGAC,0.97
8,TTGAGTAACG,1.03
9,TTGAGTCACC,1.01
10,TTGATAAGGA,0.992
11,TTGATATAAG,1.26
12,TTGATATACC,0.999
13,TTGATCAAAA,1.08
14,TTGATGGTCT,1.1
15,TTGATGTGAC,1.02
16,TTGATGTTGA,0.982
17,TTGATTAC,1.08
18,TTGATTAGCA,0.961
19,TTGATTAGCG,1.01
20,TTGATTCAAA,0.98
21,TTGATTCCGC,1.57
22,TTGATTTCA,1
23,TTGCAAGCTA,1.05
24,TTGCACGCAA,2.22
25,TTGCAGAGG,1.03
26,TTGCAGGCAG,1

row,Sequence,switch fluorescence ratio
1,TTGCAGTGGC,1.56
2,TTGCATACGG,2.79
3,TTGCCACCTG,1.01
4,TTGCCAGAAC,0.99
5,TTGCCAGCTA,0.96
6,TTGCCAGTCG,0.944
7,TTGCCATATT,1.02
8,TTGCCCAATG,1.03
9,TTGCCCGAG,1
10,TTGCCCGCTG,1.12
11,TTGCCGATGT,1.05
12,TTGCCGGAAG,1.01
13,TTGCCGGCTT,1.02
14,TTGCCGGTGT,1.07
15,TTGCCTCTTT,1.02
16,TTGCGAAGAC,1.22
17,TTGCGATTCT,0.985
18,TTGCGCGACA,1
19,TTGCGCTGCG,0.951
20,TTGCGGTGTC,1.05
21,TTGCGTACCA,1.01
22,TTGCGTATAC,3.26
23,TTGCTACCCT,1.1
24,TTGCTACCGC,1
25,TTGCTCGCTT,0.99
26,TTGCTGCTAG,1.06

row,Sequence,switch fluorescence ratio
1,TTGCTTCTGG,0.943
2,TTGCTTTCTA,0.98
3,TTGGAAGTCA,1.01
4,TTGGAATAGT,1.05
5,TTGGAATCTT,1.02
6,TTGGACCATT,1.02
7,TTGGACCTAG,1
8,TTGGACGTAT,1.09
9,TTGGACTG,0.998
10,TTGGACTTTT,0.969
11,TTGGATAATA,0.992
12,TTGGATTAGC,0.993
13,TTGGCCCAGC,1.01
14,TTGGCCCGG,1.01
15,TTGGCCGGAA,1.02
16,TTGGCCTGGC,1.04
17,TTGGCGATAA,1.23
18,TTGGCGCCCG,1
19,TTGGCGTACC,1.04
20,TTGGCTCACA,0.999
21,TTGGCTCGCC,1.02
22,TTGGCTTGAA,0.996
23,TTGGGAATCG,0.977
24,TTGGGAGAA,1.01
25,TTGGGAGCCG,1.03
26,TTGGGCGAAG,0.969

row,Sequence,switch fluorescence ratio
1,TTGGGGGCCG,0.971
2,TTGGGGGTA,0.993
3,TTGGGTACTT,1.21
4,TTGGGTCTA,1.01
5,TTGGTATCTA,1.01
6,TTGGTCGCCG,0.987
7,TTGGTCT,0.954
8,TTGGTCTAT,1.02
9,TTGGTCTTCG,0.976
10,TTGGTGCATT,1.05
11,TTGGTTACTA,1.03
12,TTGGTTGAT,0.997
13,TTGTAATGT,1.02
14,TTGTACCTAT,1.02
15,TTGTAGAAGC,0.987
16,TTGTAGGTGC,1.1
17,TTGTAGTCAT,1.07
18,TTGTCAAATG,1.01
19,TTGTCCGATT,0.973
20,TTGTCGTCGA,1.02
21,TTGTGAAACT,5.41
22,TTGTGACCAT,1.07
23,TTGTGAGAGA,1.03
24,TTGTGCAGAT,0.976
25,TTGTGCCTTG,1.02
26,TTGTGGACC,0.957

row,Sequence,switch fluorescence ratio
1,TTGTGGATAG,0.952
2,TTGTGGTTCT,0.973
3,TTGTGTAGCA,1.01
4,TTGTGTGTGA,1.12
5,TTGTGTTCTC,1.06
6,TTGTGTTGAC,1
7,TTGTTACCAC,1.02
8,TTGTTATCGT,0.982
9,TTGTTCAGG,1.03
10,TTGTTCTTGA,0.976
11,TTGTTGCCAT,1.05
12,TTGTTGTAT,0.972
13,TTGTTGTTTC,1.04
14,TTGTTTACAT,0.959
15,TTGTTTAGTC,1.01
16,TTTAAACACT,1.04
17,TTTAAACTAA,1.03
18,TTTAACACGT,1.01
19,TTTAACGCG,1.01
20,TTTAACTTCT,1.09
21,TTTAAGCGG,0.994
22,TTTAAGCTTC,1.01
23,TTTAAGGGCT,1.04
24,TTTAAGTGCA,1.04
25,TTTAATACCT,1.02
26,TTTAATCGA,0.958

row,Sequence,switch fluorescence ratio
1,TTTAATCGCA,1.01
2,TTTAATCGTC,1.08
3,TTTACAGTAT,1.13
4,TTTACAGTCT,1.08
5,TTTACCAATA,1.04
6,TTTACCACGA,1.06
7,TTTACCCTAA,1
8,TTTACCCTCT,1.02
9,TTTACGACCT,1.45
10,TTTACTATCA,0.98
11,TTTACTGAAC,1.18
12,TTTACTTTGT,0.975
13,TTTAGCACGT,0.979
14,TTTAGCATCC,1.96
15,TTTAGCCAAA,0.991
16,TTTAGCCT,1.12
17,TTTAGCGATA,1.21
18,TTTAGCGGAG,0.971
19,TTTAGCTTGA,1.01
20,TTTAGGAGCT,1.04
21,TTTAGGCCCT,1.01
22,TTTAGGGGCA,0.985
23,TTTAGGTACC,1.01
24,TTTAGGTATA,0.986
25,TTTATCACAT,1.08
26,TTTATCGATG,0.967

row,Sequence,switch fluorescence ratio
1,TTTATCGTGT,0.977
2,TTTATCTCTG,1.04
3,TTTATCTTGC,1.07
4,TTTATGAGGC,0.994
5,TTTATGTGA,1.07
6,TTTATTACGT,0.982
7,TTTATTATCG,0.946
8,TTTATTATCT,1.07
9,TTTATTCCA,1.02
10,TTTATTCTTG,1.01
11,TTTATTGCC,1.01
12,TTTATTT,1.01
13,TTTATTTAAG,0.979
14,TTTATTTGGG,0.968
15,TTTCAAAAGC,0.993
16,TTTCACCGCT,1.03
17,TTTCACCGGC,1.03
18,TTTCACTCAG,0.99
19,TTTCAGAAGT,1.13
20,TTTCAGCGTA,1.06
21,TTTCAGGTCA,0.944
22,TTTCATAACT,1.02
23,TTTCATAAGA,1
24,TTTCATACTT,0.997
25,TTTCATGG,1
26,TTTCCAACTG,1.03

row,Sequence,switch fluorescence ratio
1,TTTCCAAGAT,0.989
2,TTTCCAAGGG,1.02
3,TTTCCAATGG,1.07
4,TTTCCACATT,1
5,TTTCCATTCA,1
6,TTTCCCACGA,1.53
7,TTTCCCCGTC,1.11
8,TTTCCCGCTT,1.19
9,TTTCCCTATC,1.03
10,TTTCCGATTG,1.06
11,TTTCCTGATT,1.02
12,TTTCCTGGAA,1.03
13,TTTCGAAAC,1.89
14,TTTCGATTTA,0.944
15,TTTCGCACAG,1.06
16,TTTCGCACGG,1.06
17,TTTCGCGAGA,1.16
18,TTTCGCTCAG,1
19,TTTCGGATT,1
